# According to publication PMC8440430 (Current biology : CB, 2021):
# T1: GST-p31^comet (human, UniProt Q15013 1-274)
# T1 sequence (looked up): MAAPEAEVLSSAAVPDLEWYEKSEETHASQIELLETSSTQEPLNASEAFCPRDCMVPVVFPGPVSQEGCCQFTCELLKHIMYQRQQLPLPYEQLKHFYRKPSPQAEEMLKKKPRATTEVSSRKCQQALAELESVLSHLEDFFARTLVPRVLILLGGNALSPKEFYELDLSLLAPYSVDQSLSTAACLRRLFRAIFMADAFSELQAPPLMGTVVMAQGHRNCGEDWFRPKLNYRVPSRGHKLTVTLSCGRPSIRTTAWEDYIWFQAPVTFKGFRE
# Target: T1, GST-p31^comet
# Test: pull-down
binder,measurement,value
His6-RIT1 (natural protein) not shown,binding result,binds
